# Among all 44,000 compounds or so, about 340 (0.77%) were called active. Not shown: some 5% with an inconclusive outcome. Calls follow the shape of the dose curve; as a rule, active = well fitted inhibition curve with a large enough effect; inconclusive = small, poorly fitted or top-dose-only effect; inactive = flat fitted curve, though single readings scatter. This is one part of the list.
# Assay: Acumen qHTS Assay for Inhibitors of the mTORC1 Signaling Pathway in MEF (Tsc2-/-, p53-/-) Cells: Sytravon;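 also: plate controls were DMSO for no effect and rapamycin for full effect; nearly all actives have a fitted effect of over 50% in size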
# Settings: phospho-rpS6 immunofluorescence/PI, 24 h; series mostly up to 38.3 µM; activity change, negative = inhibition: at the top concentration
# How it was run: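 Plate MEFs (Tsc2-/-, p53-/-, empty vector) in DMEM/10% FBS; after 24 h add compound, incubate 24 h at 37 degree Celsius; fix in PFA/TX-100, block, stain phospho-rpS6 and 10 uM PI; scan at 488 nm; report % positive cells.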
row,Compound,"activity change, negative = inhibition"
1,CCOc1ccccc1NC(=O)Cn1ncc2c(=O)oc3ccc(C)cc3c21,inactive: 0.0134%
2,COc1ccccc1NC(=O)CSC1=Nc2ccccc2C2=NC(CCC(=O)NCCc3ccccc3)C(=O)N12 (stereo not given),inactive: 1.73%
3,CCOC(=O)c1c(C)oc2ncnc(Nc3ccc(OC)cc3OC)c12,inactive: 0.392%
4,O=C(Nc1nc2c(s1)CCCCCC2)Nc1ccc(F)cc1F,inactive: -1.04%
5,COc1ccc(N2CCN(C(c3ccccc3)c3sc4nc(-c5ccco5)nn4c3O)CC2)cc1 (stereo not given),inactive: -2.51%
6,Cc1ccc(C(=O)N2CCc3cc(CNS(=O)(=O)c4cccs4)ccc32)cc1,inactive: 0.138%
7,CN1C(=O)Cc2cc(S(=O)(=O)NCCc3ccc(Cl)cc3)ccc21,inactive: -9.49%
8,COc1ccc(-c2noc(CSc3nnc(C)n3-c3ccc(C)cc3)n2)cc1OC,inactive: 4.25%
9,COc1ccccc1N1CCN(C(=O)c2cn(CC(C)C)c(=O)c3c2c2ccccc2n3C)CC1,inactive: 2.24%
10,O=C(Nc1ccc(O)c(-c2nc3ccccc3o2)c1)c1sc2ccccc2c1Cl,inactive: 10.2%
11,CCCOc1ccc(NC(=O)CC2C(=O)N(c3cccc(OC)c3)C(=O)N2Cc2cccs2)cc1 (stereo not given),inactive: -1.19%
12,O=C(CSCc1cnn(-c2ccccc2)c1-n1cccc1)NCc1ccc(Cl)cc1,inactive: 3.15%
13,Cc1cc(F)ccc1S(=O)(=O)Nc1ccc2oc3c(c2c1)CC(C)CC3 (stereo not given),inactive: -19.1%
14,Cc1nc2ccn(Cc3ccccc3)c(=O)c2cc1C(=O)N1CCN(c2ccccc2F)CC1,inactive: 1.7%
15,CCOc1ccccc1C(=O)NC1(C(F)(F)F)NC(=O)N(CCc2ccc(OC)c(OC)c2)C1=O (stereo not given),inactive: -21.6%
16,COc1cc(OC)cc(-c2cc3nc(C)c(CCC(=O)NCc4ccccc4)c(C)n3n2)c1,inactive: -18.4%
17,O=C(Nc1nnc(S(=O)(=O)N2CCCc3ccccc32)s1)c1ccccc1Cl,inactive: 3.85%
18,Cc1ccc(-n2nc(CO)c(C(=O)NC(C)CCCc3ccccc3)n2)cc1 (stereo not given),inactive: 2.33%
19,COc1ccc(NC(=O)c2c(NCc3sccc3C)sc3c2CCCC3)c(OC)c1,inactive: -10.1%
20,CCc1nn2c(=O)cc(COC(=O)CNC(=O)COc3ccc(C)cc3)nc2s1,inactive: 0.216%

row,Compound,"activity change, negative = inhibition"
1,CCC(=O)N1CCc2cc(S(=O)(=O)CCC(=O)N3CCN(c4ccc(Cl)cc4)CC3)ccc21,inactive: -2.25%
2,CC(C)CC(NS(=O)(=O)c1ccc2c(c1)oc(=O)n2C)C(=O)NCc1ccccc1Cl (stereo not given),inactive: -16%
3,CCCOc1ccc(CN(C(=O)Cc2coc3ccc(CC)cc23)C2CCS(=O)(=O)C2)cc1 (stereo not given),inactive: -20.9%
4,Cc1ccc(NC(=O)CN2CCN(S(=O)(=O)c3ccc(C(C)C)cc3)CC2)cc1F,inactive: -4.33%
5,COc1ccc(Nc2nc(N)nc(N)c2S(=O)(=O)c2ccccc2)cc1,inactive: -6.77%
6,Cc1cn(C)c(CC(=O)N2CCN(c3cccc(Cl)c3)CC2)c1C(=O)O,inactive: 3.07%
7,Cc1ccc(-n2cc(C(=O)Oc3cccc(C)c3)c3ccccc3c2=O)cc1,inactive: -7.52%
8,COc1cccc(NC(=O)CSC2=Nc3ccccc3C3=NC(CCC(=O)NCCc4ccccc4)C(=O)N23)c1 (stereo not given),inactive: 0.0107%
9,Cc1cccc(NC(=O)c2ccc3nc(C(C)C)oc3c2)c1C,inactive: 0%
10,CCCN(CCC)C(=O)Cn1c(=O)n(-c2ccc(CC)cc2)c(=O)c2ccc(C(=O)NCCc3ccccc3)cc21,inactive: -19.3%
11,CCOC(=O)c1ccc(Nc2nc3ccc(C(=O)c4ccccc4)cc3n3c(C)nnc23)cc1,inactive: 1.18%
12,O=c1c2ccccc2n(Cc2ccccc2Cl)c(=O)n1CCc1ccccc1,inactive: -6.81%
13,CCCCCOc1ccc(Cn2c(=O)oc3ccccc32)cc1,inactive: -11.7%
14,COc1cc(Cl)c(NC(=O)CCS(=O)(=O)c2ccc3c(c2)NC(=O)CO3)c(OC)c1,inactive: 6.31%
15,CC(C)(C)OC(=O)N1CCC(c2c(C(=O)NC3CCN(Cc4ccccc4)CC3)cnn2-c2ccc(F)cc2F)CC1,inactive: 0%
16,COc1ccc(CCNC(=O)c2ccc3c(c2)CCN3S(=O)(=O)c2ccc(C)cc2)cc1,inactive: 4.21%
17,COc1ccc(-c2cc(C(=O)NCCc3ccccc3)c3c(-c4ccccc4)[nH]nc3n2)cc1OC,inactive: 1.38%
18,Cc1ccc(NC(=O)C2CCCN(S(=O)(=O)c3ccc4c(c3)oc(=O)n4C)C2)cc1Cl (stereo not given),inactive: 3.05%
19,CCOc1ccc(NC(=O)C(=O)c2cc(C)n(-c3cc(C)cc(C)c3)c2C)cc1,inactive: -3.06%
20,CCOc1ccc(S(=O)(=O)Nc2cccc(-c3ccc(OCC)nn3)c2)cc1,inactive: 3.2%

row,Compound,"activity change, negative = inhibition"
1,Cc1ccc(/C=C/c2onc(C)c2S(=O)(=O)N2CCC(C(=O)Nc3cc(C)ccc3C)CC2)cc1,inactive: 5.08%
2,COc1ccccc1CCNC(=O)C(=O)NCC(c1cccs1)S(=O)(=O)c1cccs1 (stereo not given),inactive: -13.3%
3,O=C(Nc1ccc(F)cc1C(F)(F)F)C1CCN(c2ncccn2)CC1,inactive: 4.18%
4,COc1ccc(S(=O)(=O)c2cn(C)c3ccc(C)cc3c2=O)cc1,inactive: 0.788%
5,Cc1cccc(NC(=O)c2c(C)cc(C)nc2SCC(=O)c2ccccc2)c1,inactive: -10.7%
6,Cc1cc(C)c2oc(C(=O)Nc3ccc(S(=O)(=O)N4CCCCCC4)cc3)cc(=O)c2c1,inactive: 2.15%
7,Cc1cccc(NC(=O)COC(=O)CCCC2=NS(=O)(=O)c3ccccc3N2)c1,inactive: 0.892%
8,CCOc1ccc(OCC)c(Nc2ccc3cc(S(=O)(=O)N4CCCC4)ccc3n2)c1,inactive: 2.02%
9,CCC1CN(C(=O)N2CCC(C(=O)NCc3cccc(OC)c3OC)CC2)c2cc(C)ccc2O1 (stereo not given),inactive: -11%
10,COc1ccccc1NC(=O)c1sc2nc(C)c(C(=O)Nc3ccc(C)cc3C)c(-c3ccco3)c2c1N,inactive: -1.03%
11,CC(C)c1ccc(NC(=O)c2ccc(F)c(S(=O)(=O)N3CCc4ccccc43)c2)cc1,inactive: 8.79%
12,CCC(C)NC(=O)CSc1nc2n[nH]c(C)c2c(=N)n1-c1cc(Cl)ccc1C (stereo not given),inactive: -11.2%
13,O=C(C1CCCN(S(=O)(=O)c2cccc3nsnc23)C1)N1CCN(c2ccccc2F)CC1 (stereo not given),inactive: 1.72%
14,COc1cccc(-c2noc(C3CC(=O)N(c4ccc(F)cc4)C3)n2)c1OC (stereo not given),inactive: -15.5%
15,COc1ccccc1CNC(=O)c1cc2sccc2n1Cc1ccc(Cl)cc1,inactive: -2.57%
16,Cc1ccccc1NC(=O)CSc1nc2ccc(NC(=O)c3cccs3)cc2s1,inactive: -9.71%
17,CCc1ccc(NC(=O)CCn2c(=O)c3cccn3c3ccccc32)cc1,inactive: -0.666%
18,COc1ccc(NC(=O)CSc2ccc3nc(-c4ccccc4)cn3n2)c(OC)c1,inactive: -15.3%
19,Cc1ccc(NC(=O)c2ccc3[nH]c(C)cc(=O)c3c2)cc1,inactive: -13.6%
20,CSc1cccc(NC(=O)c2cccc(N3CCCS3(=O)=O)c2)c1,inactive: 0%

# From PubChem BioAssay AID493208 (National Center for Advancing Translational Sciences (NCATS), 2011)
